Assay results reported in PubChem BioAssay AID652104 (National Center for Advancing Translational Sciences (NCATS), 2013).
Out of some 410,000 compounds screened, about 7,200 (1.8%) were called active. This list was built around the results that the source calls inconclusive (neither active nor inactive); the mix of calls is not that of the screen. Calls come from the whole dose curve; as a rule, active = well fitted activation curve with a large enough effect; inconclusive = small, poorly fitted or top-dose-only effect, or another doubt; inactive = no such curve, though single readings can be large or run the other way. Potencies of inconclusive entries are doubtful fits and often do not repeat.

Experiment: qHTS of TDP-43 Inhibitors; note: nearly all actives have a fitted effect of over 50% in size; for growth rescue (activation): % of control where 0% means no effect
Conditions: TDP-43 expressing yeast growth rescue, BacTiter-Glo, 24 h; growth rescue (activation): at 46.1 µM (top of the series) unless noted
In short: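 Cell-based yeast growth screen: TDP-43 expression induced in galactose, inoculum OD600=0.02 after raffinose pregrowth to mid-log. Read-out BacTiter-Glo luminescence at 24 hr, 30 deg C; inhibition of toxicity seen as signal increase.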
Potency is the fitted concentration of half-maximal effect; tags give direction and shape of the fitted curve.

Potency, active:
Cc1cccc(C(C)Nc2ccc([N+](=O)[O-])cn2)c1 (stereo not given) 17.8 µM, CCCOc1ccc(F)cc1-c1cc(C(=O)Nc2ccc(OC)cc2C)[nH]n1 25.1 µM, COc1ccc(N2C(=O)CC(Sc3n[nH]c(-c4ccccc4)n3)C2=O)cc1 (stereo not given) 2 µM, COc1ccc(NC(=O)c2cccc(Oc3ccccc3)c2)cn1 11.2 µM

Potency, inactive:
CCCc1cc(=O)n2[nH]c(NC(=O)c3ccc(C(C)(C)C)cc3)nc2n1, C=CCSc1n[nH]c2nc3c(c(=O)n12)C1(CCCC1)Cc1ccccc1-3, CC1=C(C(=O)Nc2cccnc2)C(c2cccc(Br)c2)n2nc(SCc3ccccc3)nc2N1 (stereo not given), CCc1nnc(SCc2c(F)cccc2Cl)c2cc3sccc3n12, O=C1Cc2ccccc2Sc2ccccc21, CN1C(=CC=C2C=C(I)C(=O)C(I)=C2)C(C)(C)c2ccccc21, COc1ccc(-n2c(=O)c3sc4ccccc4c3n(CC(=O)Nc3ccccc3F)c2=O)cc1, COc1ccc(N2C(=O)C(CC(=O)Nc3ccc(F)cc3)N(Cc3ccc4c(c3)OCO4)C2=O)cc1 (stereo not given), CC(C)(C)Nc1nc(Nc2ccc([N+](=O)[O-])cc2)nc(NC(C)(C)C)n1, Nc1nccc(-c2cccs2)n1, O=C(CSc1ncc2c(n1)-c1ccccc1N(Cc1ccccc1)S2(=O)=O)Nc1ccccc1, COC(=O)c1ccc(OCC2c3cc(OC)c(OC)cc3CCN2C(=O)C(C)C)cc1 (stereo not given)

Potency, inconclusive:
COC(=O)c1ccccc1NC(=O)N1CCN(c2ccc(F)cc2)CC1 15.8 µM [activator, partial curve], CC(C)(C)OC(=O)N1CCC(Cc2cc(-c3ccccc3)no2)(C(=O)O)CC1 35.5 µM [activator, partial curve], O=Nc1ccc(NOC(=O)c2ccccc2)cc1 6.31 µM [activator, partial curve], COc1ccc(CCNC(=O)c2ccc(C)s2)cc1OC 20 µM [activator, partial curve], Cc1ccc(CNC(=O)COCc2cc(-c3cccs3)on2)cc1 35.5 µM [activator, single point], CN(Cc1ccccc1)C(c1ccnc2ccccc12)c1nnnn1-c1ccc2c(c1)OCCO2 (stereo not given) 35.5 µM [activator, single point], CCCCCCCCCC1(CC(=O)OCC)SCCN1C(N)=O (stereo not given) 20 µM [activator, partial curve], Cc1nc(Cl)sc1C(=O)Nc1cccc2ccccc12 17.8 µM [activator, single point], COC(=O)c1cn(Cc2c(C)cc(C)cc2C)nn1 0.562 µM [activator, full curve, poor fit], Fc1ccc(NC(=S)NCCc2ccccn2)cc1 3.16 µM [activator, partial curve], O=C(Nc1cccc(F)c1)N(Cc1ccc(Cl)cc1)CC(O)C(F)(F)F (stereo not given) 35.5 µM [activator, single point], Cc1cc(-c2ccc(C)c(S(=O)(=O)NC(c3cccs3)C(C)C)c2)on1 (stereo not given) 22.4 µM [activator, single point], CN(CCOc1ccccc1)C(=O)c1cc(COc2c(F)cccc2F)on1 11.2 µM [activator, partial curve], Cn1cc(C2OC(=O)c3ccccc32)c2ccccc21 (stereo not given) 14.1 µM [activator, single point], CCn1cc(Br)c(C(=O)Nc2ccc(Cl)c(Cl)c2)n1 1.58 µM [activator, full curve], COc1nc(-c2ccccc2)ccc1-c1noc(-c2cccs2)n1 11.2 µM [activator, partial curve], COc1cccc(CNc2ccc(F)c(Cl)c2)c1OC 14.1 µM [activator, single point], Cc1ccc(N2CCN(C(=O)c3cc(-c4ccc(F)cc4)[nH]c3C)CC2C)cc1 (stereo not given) 35.5 µM [activator, single point], Cn1c(=O)[nH]c(=O)c2c1nc(N1CCCCC1)n2CCCSc1nc2ccccc2s1 15.8 µM [activator, single point], c1ccc(-c2cn3nc(-c4ccccc4)c(-c4ccccc4)nc3n2)cc1 35.5 µM [activator, single point], CC(C1CC1)N(C(=O)c1ccccc1O)c1ccccc1 (stereo not given) 4.47 µM [activator, single point], N#Cc1nc(Cc2ccccc2)oc1NCc1ccccc1Cl 25.1 µM [activator, single point], CCN1C(=O)[C@H]2[C@@H](c3ccc(-c4ccc(F)cc4)c(OC)c3)N3CCCC[C@@]3(C(=O)OC)[C@H]2C1=O 31.6 µM [activator, single point], Cc1ccc(C)c(CN2C(=O)c3ccccc3S(=O)(=O)c3ccc(C(=O)N4CCN(c5ccccn5)CC4)cc32)c1 0.562 µM [activator, full curve, poor fit], CC(=O)Nc1ccc(NC(=O)C(C)OC(=O)[C@@H]2CCCN2C(=O)c2cccs2)cc1 (stereo not given in full) 35.5 µM [activator, single point], CC(=O)N(Cc1ccc(F)cc1)C1=C(NCCc2ccccc2)C(=O)c2ccccc2C1=O 35.5 µM [activator, single point], O=C1c2cc(F)ccc2-n2c1nc1ccccc1c2=O 10 µM [activator, partial curve], Cn1ncc(Br)c1C(=O)NC12CC3CC(CC(C3)C1)C2 10 µM [activator, single point]

Growth rescue (activation), inconclusive:
COc1ccc2c(c1)C(=O)N1[C@H]3c4cc(OC)ccc4OC[C@@H]3[C@H](c3ccccc3)[C@]1(C)C(=O)N2 -44.2% [activator]
